Laboratory results from a collection of fitness landscapes (doi:10.1126/science.1257360).
Some of the results follow.

B1: PhoQ; a variant is named by its letters at X, in order, P23837 (parent)
chain: MKKLLRLFFPLSLRVRFLLATAAVVLVLSLAYGMVALIGYSVSFDKTTFRLLRGESNLFYTLAKWENNKLHVELPENIDKQSPTMTLIYDENGQLLWAQRDVPWLMKMIQPDWLKSNGFHEIEADVNDTSLLLSGDHSIQQQLQEVREDDDDAEMTHSVAVNVYPATSRMPKLTIVVVDTIPVELKSSYMVWSWFIYVLSANLLLVIPLLWVAAWWSLRPIEALAKEVRELEEHNRELLNPATTRELTSLVRNLNRLLKSERERYDKYRTTLTDLTHSLKTPLXXLQXXLRSLRSEKMSVSDAEPVMLEQISRISQQIGYYLHRASMRGGTLLSRELHPVAPLLDNLTSALNKVYQRKGVNISLDISPEISFVGEQNDFVEVMGNVLDNACKYCLEFVEISARQTDEHLYIVVEDDGPGIPLSKREVIFDRGQRVDTLRPGQGVGLAVAREITEQYEGKIVAGESMLGGARMEVIFGRQHSAPKDE

Variants of: B1
Assay: enrichment ratio after two sorts for PhoP signalling (ratio (wild type AVST 3.29)); higher = more functional
Settings: with PhoP (E. coli)

Row | Variant | enrichment ratio
1 | GYWE | ≤ 0.25
2 | HYKL | ≤ 0.25
3 | PARH | ≤ 0.25
4 | WSDF | ≤ 0.25
5 | NIVM | ≤ 0.25
6 | QSKP | ≤ 0.25
7 | REAA | ≤ 0.25
8 | PTLR | ≤ 0.25
9 | VSPE | ≤ 0.25
10 | FDGT | ≤ 0.25
11 | ENEC | ≤ 0.25
12 | EGAI | ≤ 0.25
13 | NNRN | ≤ 0.25
14 | RCSW | ≤ 0.25
15 | IEDI | ≤ 0.25
16 | FHVV | ≤ 0.25
17 | KNSK | ≤ 0.25
18 | ILIM | ≤ 0.25
19 | YQHE | ≤ 0.25
20 | CSYL | ≤ 0.25
21 | MQRG | ≤ 0.25
22 | LAYG | ≤ 0.25
23 | WIWR | ≤ 0.25
24 | HSDH | ≤ 0.25

Row | Variant | enrichment ratio
25 | TCAC | 10.4
26 | DVCK | ≤ 0.25
27 | YERE | ≤ 0.25
28 | WQFG | ≤ 0.25
29 | EQHQ | ≤ 0.25
30 | RTLA | ≤ 0.25
31 | MSNQ | ≤ 0.25
32 | PGHN | ≤ 0.25
33 | MDVT | ≤ 0.25
34 | NYVS | ≤ 0.25
35 | IENC | ≤ 0.25
36 | KYMY | ≤ 0.25
37 | GWMS | ≤ 0.25
38 | YPCP | ≤ 0.25
39 | MYPA | ≤ 0.25
40 | MGQM | ≤ 0.25
41 | QQKC | ≤ 0.25
42 | YVSR | ≤ 0.25
43 | WVIR | ≤ 0.25
44 | EVRH | ≤ 0.25
45 | VIKY | ≤ 0.25
46 | HPSG | ≤ 0.25
47 | NARP | ≤ 0.25
48 | YMNM | ≤ 0.25

Row | Variant | enrichment ratio
49 | LDWM | ≤ 0.25
50 | EYSF | ≤ 0.25
51 | ATTK | 10.4
52 | PSVN | ≤ 0.25
53 | GPLM | ≤ 0.25
54 | EDSR | ≤ 0.25
55 | GIVL | 9.54
56 | RQFV | ≤ 0.25
57 | TCIK | ≤ 0.25
58 | NLSW | ≤ 0.25
59 | RLNE | ≤ 0.25
60 | VIVE | ≤ 0.25
61 | MCTG | ≤ 0.25
62 | HGVI | 1.24
63 | GSPQ | ≤ 0.25
64 | HQTC | ≤ 0.25
65 | YMMD | ≤ 0.25
66 | MLAA | ≤ 0.25
67 | FICN | ≤ 0.25
68 | TNMS | 4.8
69 | ASIY | 3.82
70 | PGNR | ≤ 0.25
71 | ACYL | 0.538
72 | MKRM | ≤ 0.25

Row | Variant | enrichment ratio
73 | YVCF | 0.805
74 | YTQP | ≤ 0.25
75 | FPGS | ≤ 0.25
76 | MIDF | ≤ 0.25
77 | ECRA | ≤ 0.25
78 | CHFG | ≤ 0.25
79 | IMLH | ≤ 0.25
80 | PYGL | ≤ 0.25
81 | QYCF | ≤ 0.25
82 | VAMN | ≤ 0.25
83 | AVSE | ≤ 0.25
84 | SGER | ≤ 0.25
85 | INTW | ≤ 0.25
86 | RPLI | ≤ 0.25
87 | FQLW | ≤ 0.25
88 | YRCQ | ≤ 0.25
89 | PDEY | ≤ 0.25
90 | NVLE | ≤ 0.25
91 | MYPE | ≤ 0.25
92 | SLQL | 5.85
93 | SQTL | 12.3
94 | RTYN | ≤ 0.25
95 | VSSW | ≤ 0.25
96 | RKSA | ≤ 0.25

Row | Variant | enrichment ratio
97 | NCWW | ≤ 0.25
98 | IPYC | ≤ 0.25
99 | ISNY | ≤ 0.25
100 | LPYK | ≤ 0.25
101 | KANF | ≤ 0.25
102 | YTLH | 0.617
103 | QSGC | 2.55
104 | ANHG | ≤ 0.25
105 | IVER | ≤ 0.25
106 | GPSP | ≤ 0.25
107 | DMSD | ≤ 0.25
108 | FCEN | ≤ 0.25
109 | YTTP | ≤ 0.25
110 | KRHK | ≤ 0.25
111 | VRFD | ≤ 0.25
112 | FLIN | ≤ 0.25
113 | FCYA | ≤ 0.25
114 | KEKF | ≤ 0.25
115 | LSTA | ≤ 0.25
116 | PRRM | ≤ 0.25
117 | LTLK | ≤ 0.25
118 | WVWI | ≤ 0.25
119 | YVAR | ≤ 0.25
120 | YWNW | ≤ 0.25

Row | Variant | enrichment ratio
121 | GKHQ | ≤ 0.25
122 | RWQG | ≤ 0.25
123 | NCKM | ≤ 0.25
124 | LFWD | ≤ 0.25
125 | YMMM | ≤ 0.25
126 | FSLQ | 11.8
127 | FFIR | ≤ 0.25
128 | NMNQ | ≤ 0.25
129 | MKAR | ≤ 0.25
130 | STHF | ≤ 0.25
131 | PVKL | ≤ 0.25
132 | TSPA | ≤ 0.25
133 | TYED | ≤ 0.25
134 | EGNP | ≤ 0.25
135 | AHLK | ≤ 0.25
136 | YKQC | ≤ 0.25
137 | ILLE | ≤ 0.25
138 | KAHQ | ≤ 0.25
139 | PRYK | ≤ 0.25
140 | NTRY | ≤ 0.25
141 | ADWA | ≤ 0.25
142 | SEQK | ≤ 0.25
143 | GQIN | ≤ 0.25
144 | SEPG | ≤ 0.25

Row | Variant | enrichment ratio
145 | LYGC | ≤ 0.25
146 | IARN | ≤ 0.25
147 | CCIL | ≤ 0.25
148 | DTET | ≤ 0.25
149 | VPQY | ≤ 0.25
150 | GNID | ≤ 0.25
151 | VWHH | ≤ 0.25
152 | YDST | ≤ 0.25
153 | TQML | 22.5
154 | FGHD | ≤ 0.25
155 | FKQD | ≤ 0.25
156 | MDDG | ≤ 0.25
157 | LRSP | ≤ 0.25
158 | LLHS | ≤ 0.25
159 | GPPT | ≤ 0.25
160 | IEFT | ≤ 0.25
161 | QWFT | ≤ 0.25
162 | YPEF | ≤ 0.25
163 | YCYP | ≤ 0.25
164 | SPNQ | ≤ 0.25
165 | SMNR | ≤ 0.25
166 | DRQP | ≤ 0.25
167 | ECQL | ≤ 0.25
168 | MFPE | ≤ 0.25

Row | Variant | enrichment ratio
169 | FRHW | ≤ 0.25
170 | NIPN | ≤ 0.25
171 | YFSL | ≤ 0.25
172 | YYHP | ≤ 0.25
173 | MHEF | ≤ 0.25
174 | LVTD | ≤ 0.25
175 | YSVS | ≤ 0.25
176 | KRHG | ≤ 0.25
177 | PWFR | ≤ 0.25
178 | NREL | ≤ 0.25
179 | WDCL | ≤ 0.25
180 | FMLQ | ≤ 0.25
181 | GTQF | ≤ 0.25
182 | VETV | 1.5
183 | EEGY | ≤ 0.25
184 | KERV | ≤ 0.25
185 | HWKL | ≤ 0.25
186 | MCDK | ≤ 0.25
187 | LWCY | ≤ 0.25
188 | GTNR | ≤ 0.25
189 | IEFK | ≤ 0.25
190 | DIKL | ≤ 0.25
191 | LWDG | ≤ 0.25
192 | QSAS | ≤ 0.25

Row | Variant | enrichment ratio
193 | SHPC | 1.02
194 | SIEY | 1.32
195 | SGMF | 13.3
196 | HESF | ≤ 0.25
197 | QKIQ | ≤ 0.25
198 | SMIR | ≤ 0.25
199 | GIRR | ≤ 0.25
200 | FWCC | ≤ 0.25
201 | EKFI | ≤ 0.25
202 | WLAV | ≤ 0.25
203 | TQFW | ≤ 0.25
204 | KALT | ≤ 0.25
205 | DNHV | ≤ 0.25
206 | MNPS | ≤ 0.25
207 | ELES | ≤ 0.25
208 | WVFC | ≤ 0.25
209 | LGKV | ≤ 0.25
210 | SPCN | ≤ 0.25
211 | YVWM | ≤ 0.25
212 | HCPV | ≤ 0.25
213 | HCPQ | ≤ 0.25
214 | PKWL | ≤ 0.25
215 | IHEM | ≤ 0.25
216 | SPLS | ≤ 0.25

Row | Variant | enrichment ratio
217 | FHGT | ≤ 0.25
218 | DQDI | ≤ 0.25
219 | GFQD | ≤ 0.25
220 | RWVI | ≤ 0.25
221 | IKMD | ≤ 0.25
222 | NNHS | ≤ 0.25
223 | YNQD | ≤ 0.25
224 | NCKV | ≤ 0.25
225 | KCGQ | ≤ 0.25
226 | TTNC | 4.75
227 | GYYP | ≤ 0.25
228 | TWMD | ≤ 0.25
229 | VLWR | ≤ 0.25
230 | KMGL | ≤ 0.25
231 | NCCP | ≤ 0.25
232 | MSQN | ≤ 0.25
233 | TPQC | ≤ 0.25
234 | GMNQ | ≤ 0.25
235 | FPHH | ≤ 0.25
236 | EPNF | ≤ 0.25
237 | RPLG | ≤ 0.25
238 | ASIP | ≤ 0.25
239 | ERTK | ≤ 0.25
240 | GVKG | ≤ 0.25

Row | Variant | enrichment ratio
241 | MHKL | ≤ 0.25
242 | RGSI | ≤ 0.25
243 | SPIS | ≤ 0.25
244 | IKCI | ≤ 0.25
245 | FRAW | ≤ 0.25
246 | RRSL | ≤ 0.25
247 | AMGA | ≤ 0.25
248 | IAEN | ≤ 0.25
249 | LAWY | ≤ 0.25
250 | IWPC | ≤ 0.25
251 | IDSY | ≤ 0.25
252 | ECCG | ≤ 0.25
253 | PARR | ≤ 0.25
254 | TKYF | ≤ 0.25
255 | SAAT | 3.66
256 | DLNV | ≤ 0.25
257 | HKTF | ≤ 0.25
258 | LAKN | ≤ 0.25
259 | RTKS | ≤ 0.25
260 | KSCR | ≤ 0.25
261 | IFGW | ≤ 0.25
262 | MCIM | ≤ 0.25
263 | TYFY | ≤ 0.25
264 | TQSA | 19.8

Row | Variant | enrichment ratio
265 | DFVH | ≤ 0.25
266 | NHSH | ≤ 0.25
267 | GFMK | ≤ 0.25
268 | ERNL | ≤ 0.25
269 | RNMP | ≤ 0.25
270 | NEHR | ≤ 0.25
271 | RVGN | ≤ 0.25
272 | LPHI | ≤ 0.25
273 | IGCL | ≤ 0.25
274 | RTLS | ≤ 0.25
275 | PPHN | ≤ 0.25
276 | KSDD | ≤ 0.25
277 | HNWN | ≤ 0.25
278 | VGIA | ≤ 0.25
279 | HNMS | ≤ 0.25
280 | EPNP | ≤ 0.25
281 | TWSP | ≤ 0.25
282 | RTGY | ≤ 0.25
283 | MDSV | ≤ 0.25
284 | NCAR | ≤ 0.25
285 | GWTI | ≤ 0.25
286 | FCIK | ≤ 0.25
287 | GYPR | 0.756
288 | GRMP | ≤ 0.25

Row | Variant | enrichment ratio
289 | KFPF | ≤ 0.25
290 | QKTC | ≤ 0.25
291 | MCTF | 1.54
292 | RMFE | ≤ 0.25
293 | FTMR | ≤ 0.25
294 | NHSN | ≤ 0.25
295 | VDRR | ≤ 0.25
296 | YLTS | 0.315
297 | APRF | ≤ 0.25
298 | GEHF | ≤ 0.25
299 | EDPI | ≤ 0.25
300 | FFFM | ≤ 0.25
301 | NFMF | ≤ 0.25
302 | WPKS | ≤ 0.25
303 | NISV | 3.96
304 | DYVQ | ≤ 0.25
305 | TVWP | ≤ 0.25
306 | MKQS | ≤ 0.25
